The supplement of paper PMC8728848
The list shows a part of the results.

What was measured:
Assay in all cases: glycan array binding signal (z-score within array); higher = stronger binding
Conditions in all cases: glycan notation: IUPAC condensed, linker removed
[1] = biological target: Fuc(a1-2)[Gal(a1-3)]Gal(b1-4)[Fuc(a1-3)]Glc
Summary of the method: (§1)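 The binding signal is a Z-score computed within each array and averaged over linkers. Arrays of the same protein sequence at different concentrations or buffers were also averaged together. Data originate from 3228 arrays in the Consortium for Functional Glycomics database, kept only where the protein sequence was available.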

[2] = biological target: Fuc(a1-2)[Gal(a1-3)]Gal(b1-4)[Fuc(a1-3)]GlcNAc
Summary of the method: as §1

[3] = biological target: Fuc(a1-2)[Gal(a1-3)]Gal(b1-4)[Fuc(a1-3)]GlcNAc(b1-3)GalNAc
Summary of the method: as §1

[4] = biological target: Fuc(a1-2)[Gal(a1-4)]Gal(b1-4)GalNAc
Summary of the method: as §1

[5] = biological target: Fuc(a1-2)[Gal(a1-4)]Gal(b1-4)GlcNAc
Summary of the method: as §1

[6] = biological target: Fuc(a1-2)[GalNAc(a1-3)]Gal
Summary of the method: as §1

[7] = biological target: Fuc(a1-2)[GalNAc(a1-3)]Gal(b1-3)GalNAc(a1-3)[Fuc(a1-2)]Gal(b1-4)GlcNAc
Summary of the method: as §1

[8] = biological target: Fuc(a1-2)[GalNAc(a1-3)]Gal(b1-3)GalNAc(b1-3)Gal(a1-4)Gal(b1-4)Glc
Summary of the method: as §1

[9] = biological target: Fuc(a1-2)[GalNAc(a1-3)]Gal(b1-3)GlcNAc
Summary of the method: as §1

[10] = biological target: Fuc(a1-2)[GalNAc(a1-3)]Gal(b1-3)GlcNAc(b1-2)Man(a1-3)[Fuc(a1-2)[GalNAc(a1-3)]Gal(b1-3)GlcNAc(b1-2)Man(a1-6)]Man(b1-4)GlcNAc(b1-4)GlcNAc
Summary of the method: as §1

[11] = biological target: Fuc(a1-2)[GalNAc(a1-3)]Gal(b1-3)GlcNAc(b1-2)Man(a1-3)[Fuc(a1-2)[GalNAc(a1-3)]Gal(b1-3)GlcNAc(b1-2)Man(a1-6)]Man(b1-4)GlcNAc(b1-4)[Fuc(a1-6)]GlcNAc
Summary of the method: as §1

[12] = biological target: Fuc(a1-2)[GalNAc(a1-3)]Gal(b1-3)GlcNAc(b1-3)GalNAc
Summary of the method: as §1

[13] = biological target: Fuc(a1-2)[GalNAc(a1-3)]Gal(b1-3)GlcNAc(b1-6)GalNAc
Summary of the method: as §1

[14] = biological target: Fuc(a1-2)[GalNAc(a1-3)]Gal(b1-4)Glc
Summary of the method: as §1

[15] = biological target: Fuc(a1-2)[GalNAc(a1-3)]Gal(b1-4)GlcNAc
Summary of the method: as §1

[16] = biological target: Fuc(a1-2)[GalNAc(a1-3)]Gal(b1-4)GlcNAc(b1-2)Man
Summary of the method: as §1

[17] = biological target: Fuc(a1-2)[GalNAc(a1-3)]Gal(b1-4)GlcNAc(b1-2)Man(a1-3)[Fuc(a1-2)[GalNAc(a1-3)]Gal(b1-4)GlcNAc(b1-2)Man(a1-6)]Man(b1-4)GlcNAc(b1-4)GlcNAc
Summary of the method: as §1

[18] = biological target: Fuc(a1-2)[GalNAc(a1-3)]Gal(b1-4)GlcNAc(b1-2)Man(a1-3)[Fuc(a1-2)[GalNAc(a1-3)]Gal(b1-4)GlcNAc(b1-2)Man(a1-6)]Man(b1-4)GlcNAc(b1-4)[Fuc(a1-6)]GlcNAc
Summary of the method: as §1

[19] = biological target: Fuc(a1-2)[GalNAc(a1-3)]Gal(b1-4)GlcNAc(b1-3)Gal(b1-4)GlcNAc
Summary of the method: as §1

[20] = biological target: Fuc(a1-2)[GalNAc(a1-3)]Gal(b1-4)GlcNAc(b1-3)Gal(b1-4)GlcNAc(b1-3)Gal(b1-4)GlcNAc
Summary of the method: as §1

[21] = biological target: Fuc(a1-2)[GalNAc(a1-3)]Gal(b1-4)GlcNAc(b1-3)GalNAc
Summary of the method: as §1

[22] = biological target: Fuc(a1-2)[GalNAc(a1-3)]Gal(b1-4)GlcNAc(b1-3)[Fuc(a1-2)[GalNAc(a1-3)]Gal(b1-4)GlcNAc(b1-6)]GalNAc
Summary of the method: as §1

[23] = biological target: Fuc(a1-2)[GalNAc(a1-3)]Gal(b1-4)GlcNAc(b1-6)GalNAc
Summary of the method: as §1

[24] = biological target: Fuc(a1-2)[GalNAc(a1-3)]Gal(b1-4)[Fuc(a1-3)]GlcNAc
Summary of the method: as §1

[25] = biological target: Fuc(a1-2)[GalNAc(a1-3)]Gal(b1-4)[Fuc(a1-3)]GlcNAc(b1-3)GalNAc
Summary of the method: as §1

[26] = biological target: Fuc(a1-2)[GalNAc(a1-4)]Gal(b1-4)GlcNAc
Summary of the method: as §1

[27] = biological target: Fuc(a1-2)[GalNAc(b1-3)]Gal
Summary of the method: as §1

Fuc(a1-3)GlcNAc = biological target: Fuc(a1-3)GlcNAc
Summary of the method: as §1

[28] = biological target: Fuc(a1-3)[Gal(b1-4)]Glc6S
Summary of the method: as §1

[29] = biological target: Fuc(a1-3)[Gal(b1-4)]GlcNAc
Summary of the method: as §1

[30] = biological target: Fuc(a1-3)[Gal(b1-4)]GlcNAc(b1-2)Man
Summary of the method: as §1

[31] = biological target: Fuc(a1-3)[Gal(b1-4)]GlcNAc(b1-2)Man(a1-3)[Fuc(a1-3)[Gal(b1-4)]GlcNAc(b1-2)Man(a1-6)]Man(b1-4)GlcNAc(b1-4)GlcNAc
Summary of the method: as §1

[32] = biological target: Fuc(a1-3)[Gal(b1-4)]GlcNAc(b1-2)Man(a1-3)[Fuc(a1-3)[Gal(b1-4)]GlcNAc(b1-2)Man(a1-6)]Man(b1-4)GlcNAc(b1-4)[Fuc(a1-6)]GlcNAc
Summary of the method: as §1

[33] = biological target: Fuc(a1-3)[Gal(b1-4)]GlcNAc(b1-3)Gal(b1-3)[Fuc(a1-4)]GlcNAc
Summary of the method: as §1

[34] = biological target: Fuc(a1-3)[Gal(b1-4)]GlcNAc(b1-3)Gal(b1-4)[Fuc(a1-3)]GlcNAc
Summary of the method: as §1

[35] = biological target: Fuc(a1-3)[Gal(b1-4)]GlcNAc(b1-3)Gal(b1-4)[Fuc(a1-3)]GlcNAc(b1-3)Gal(b1-4)[Fuc(a1-3)]GlcNAc
Summary of the method: as §1

[36] = biological target: Fuc(a1-3)[Gal(b1-4)]GlcNAc(b1-3)GalNAc
Summary of the method: as §1

B1: Gal 7 (Homo sapiens) (protein)
chain: MSNVPHKSSLPEGIRPGTVLRIRGLVPPNASRFHVNLLCGEEGGSDAALHFNPRLDTSEVVFNSKEGGSWGREERGPGVPFGRGQPFEVLIIASDDGFKAVVGDAQYHHFRHRLPLARVRLVEVGGDVQLDSVRIF
- glycan array binding signal (z-score) [1]: -0.29
- glycan array binding signal (z-score) [2]: -0.215
- glycan array binding signal (z-score) [3]: 0.143
- glycan array binding signal (z-score) [4]: -0.319
- glycan array binding signal (z-score) [5]: -0.283
- glycan array binding signal (z-score) [6]: -0.302
- glycan array binding signal (z-score) [7]: -0.275
- glycan array binding signal (z-score) [8]: -0.204
- glycan array binding signal (z-score) [9]: -0.071
- glycan array binding signal (z-score) [10]: -0.065
- glycan array binding signal (z-score) [11]: -0.066
- glycan array binding signal (z-score) [12]: 0.543
- glycan array binding signal (z-score) [13]: -0.122
- glycan array binding signal (z-score) [14]: 0.292
- glycan array binding signal (z-score) [15]: -0.286
- glycan array binding signal (z-score) [16]: -0.264
- glycan array binding signal (z-score) [17]: -0.273
- glycan array binding signal (z-score) [18]: 0.188
- glycan array binding signal (z-score) [19]: -0.304
- glycan array binding signal (z-score) [20]: 0.975
- glycan array binding signal (z-score) [21]: -0.108
- glycan array binding signal (z-score) [22]: -0.309
- glycan array binding signal (z-score) [23]: -0.265
- glycan array binding signal (z-score) [24]: -0.196
- glycan array binding signal (z-score) [25]: 0.459
- glycan array binding signal (z-score) [26]: -0.23
- glycan array binding signal (z-score) [27]: -0.241
- glycan array binding signal (z-score) (Fuc(a1-3)GlcNAc): -0.304
- glycan array binding signal (z-score) [28]: -0.162
- glycan array binding signal (z-score) [29]: -0.32
- glycan array binding signal (z-score) [30]: -0.175
- glycan array binding signal (z-score) [31]: -0.116
- glycan array binding signal (z-score) [32]: 0.221
- glycan array binding signal (z-score) [33]: -0.256
- glycan array binding signal (z-score) [34]: -0.252
- glycan array binding signal (z-score) [35]: -0.266
- glycan array binding signal (z-score) [36]: 0.304
